Laboratory results from the supplement of paper PMC7826260.
Some of the results follow. Each Rep nickase domain was tested in vitro on the same pool of single strands at 3 µM enzyme and 37 °C for 1 h; the strands have 90 letters, of which the middle is given. The score is log2 (uncut reads / reads without enzyme); the lower, the more was cut; hits are not called. The scaling is to total reads, so uncut sequences can rise above 0 when many others are cut.

Tests used:
Assay in all cases: uncleaved DNA left, log2 of reads against the no-enzyme library (log2 ratio); higher = less cleavage (more negative = more Rep cleavage of the k-mer); sequences stand for … in CTCGTCCG…ACCGGAGA
[1] = tested on: T1, Rep nickase domain of Muscovy duck circovirus
T1 sequence (residues 1-111, tag not shown): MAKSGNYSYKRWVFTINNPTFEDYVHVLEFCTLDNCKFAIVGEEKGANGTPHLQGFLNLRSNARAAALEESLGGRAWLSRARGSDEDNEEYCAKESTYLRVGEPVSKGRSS
Experimental: (§1)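 A pool of 90-nt single-stranded DNAs with seven random bases just before the constant AC of the nick site (name = the seven bases) was cut by 3 µM recombinant His6-SUMO-tagged Rep nickase domain (300 nM DNA, 50 mM HEPES pH 8.0, 50 mM NaCl, 1 mM MnCl2, 1 h, 37 °C, three replicates). Uncut DNA was amplified and sequenced.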

[2] = tested on: T2, Rep nickase domain of banana bunchy top virus
T2 sequence (residues 1-94, tag not shown): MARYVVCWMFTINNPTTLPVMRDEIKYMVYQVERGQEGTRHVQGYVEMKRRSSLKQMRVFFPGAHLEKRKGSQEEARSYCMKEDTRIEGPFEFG
Experimental: as §1

[3] = tested on: T3, Rep nickase domain of cabbage leaf curl virus
T3 sequence (residues 1-116, tag not shown): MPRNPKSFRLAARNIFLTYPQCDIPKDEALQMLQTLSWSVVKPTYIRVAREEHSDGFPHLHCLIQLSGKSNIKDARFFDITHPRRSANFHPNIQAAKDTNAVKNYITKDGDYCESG
Experimental: as §1

[4] = tested on: T4, Rep nickase domain of chickpea chlorotic dwarf virus
T4 sequence (residues 1-124, tag not shown): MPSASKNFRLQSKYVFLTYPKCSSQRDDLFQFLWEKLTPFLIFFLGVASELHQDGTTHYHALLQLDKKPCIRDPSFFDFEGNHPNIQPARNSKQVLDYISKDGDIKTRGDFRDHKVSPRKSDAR
Experimental: as §1

[5] = tested on: T5, Rep nickase domain of faba bean necrotic yellows virus
T5 sequence (residues 1-98, tag not shown): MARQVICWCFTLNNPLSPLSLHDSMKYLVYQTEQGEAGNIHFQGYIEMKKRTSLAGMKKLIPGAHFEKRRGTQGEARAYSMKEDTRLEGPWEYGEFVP
Experimental: as §1

[6] = tested on: T6, Rep nickase domain of maize striate mosaic virus
T6 sequence (residues 1-117, tag not shown): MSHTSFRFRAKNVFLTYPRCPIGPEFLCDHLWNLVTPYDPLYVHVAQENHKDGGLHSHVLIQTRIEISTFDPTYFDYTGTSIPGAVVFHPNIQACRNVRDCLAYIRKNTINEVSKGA
Experimental: as §1

[7] = tested on: T7, Rep nickase domain of porcine circovirus 2
T7 sequence (residues 2-116, tag not shown): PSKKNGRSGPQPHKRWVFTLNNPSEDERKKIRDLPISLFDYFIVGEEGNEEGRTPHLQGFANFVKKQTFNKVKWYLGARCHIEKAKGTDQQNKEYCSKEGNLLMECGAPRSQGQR
Experimental: as §1

[8] = tested on: T8, Rep nickase domain of tomato golden mosaic virus
T8 sequence (residues 1-124, tag not shown): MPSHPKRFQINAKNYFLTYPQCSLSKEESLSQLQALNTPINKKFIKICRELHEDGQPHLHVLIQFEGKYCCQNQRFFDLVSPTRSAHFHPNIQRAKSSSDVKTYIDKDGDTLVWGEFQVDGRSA
Experimental: as §1

[9] = tested on: T9, Rep nickase domain of tomato yellow leaf curl virus
T9 sequence (residues 1-136, tag not shown): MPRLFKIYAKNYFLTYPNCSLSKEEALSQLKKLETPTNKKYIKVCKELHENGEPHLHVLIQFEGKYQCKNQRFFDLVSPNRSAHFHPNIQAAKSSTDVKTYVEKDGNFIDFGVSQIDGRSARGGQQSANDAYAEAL
Experimental: as §1

[10] = tested on: T10, Rep nickase domain of wheat dwarf virus
T10 sequence (residues 1-137, tag not shown): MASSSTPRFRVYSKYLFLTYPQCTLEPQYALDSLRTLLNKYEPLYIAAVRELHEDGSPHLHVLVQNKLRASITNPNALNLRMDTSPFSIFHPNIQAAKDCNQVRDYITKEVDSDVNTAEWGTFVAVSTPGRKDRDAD
Experimental: as §1

Sequence	uncleaved DNA left (log2) [1]	uncleaved DNA left (log2) [2]	uncleaved DNA left (log2) [3]	uncleaved DNA left (log2) [4]	uncleaved DNA left (log2) [5]	uncleaved DNA left (log2) [6]	uncleaved DNA left (log2) [7]	uncleaved DNA left (log2) [8]	uncleaved DNA left (log2) [9]	uncleaved DNA left (log2) [10]
CGGTTGA	0.00956	0.0662	0.194	0.518	0.0836	0.953	0.123	0.0261	0.179	0.225
CAGTTAA	0.0241	-0.0562	-0.29	-0.63	-0.0499	-0.702	-2.96	0.106	-0.132	-0.00394
CATACAG	0.0906	0.0354	-0.982	-0.953	0.0335	-1.08	0.175	-0.0198	0.0684	-0.144
CATGTTG	0.209	0.0981	-0.412	-0.412	0.0496	-0.758	0.288	0.0277	0.136	-0.0155
CGGGTCC	0.0132	-0.0692	0.423	0.829	-0.124	1.24	0.00648	-0.147	-0.0151	-0.0209
TAACACG	0.0326	0.0237	-0.993	-1.31	-0.0443	-1.39	0.0604	-0.0604	-0.0229	-0.119
TATCAGT	-0.0289	-0.136	-0.444	-1.53	-0.0438	-1.09	-0.928	-0.144	-0.131	-0.132
ATATAAT	-3.34	-0.183	-1.93	-2.81	-0.0856	-0.806	-3.33	-0.223	-0.0705	-0.364
GGGCGCT	-0.0125	0.0561	0.684	1.6	-0.0975	2.07	0.00476	-0.0364	-0.016	0.129
CCCCTCA	-0.0589	0.035	-0.0489	-0.854	-0.0398	-0.393	-0.197	-0.172	-0.0375	0.0112
GCTGGCC	0.0757	0.034	0.164	0.784	0.106	1.15	0.152	0.129	0.0875	0.146
GCTTCGT	-0.007	-0.0762	-0.246	-0.207	-0.00803	-0.752	-0.099	-0.0561	0.0966	-0.0996
GTTCTGA	-0.0102	0.0358	0.166	0.867	-0.0444	1.76	0.0317	0.0418	0.0529	0.00365
CCTAGAA	0.0179	0.00903	0.114	-0.244	0.0575	-0.55	0.0817	0.0967	-0.104	0.0651
GCACTAT	0.0579	-0.026	0.0675	-0.189	0.109	0.0689	-0.00376	0.129	-0.0569	0.0888
GTGCGGC	0.132	0.0524	0.0448	0.539	0.0135	0.44	0.197	0.0549	0.0899	0.0686
CATTGAA	-0.0389	-0.304	-0.525	-0.765	0.0857	-1.2	-0.521	0.00391	0.101	-0.055
CCGTCGC	0.017	0.0852	-0.333	-0.404	0.0124	-0.512	0.193	0.0725	0.0555	-0.0748
TGCGGTA	-0.144	0.000518	-0.412	-0.664	-0.206	-0.883	-0.367	0.0726	0.0951	-0.0401
TAAACGC	0.121	0.0428	-0.568	-1.81	0.0693	-1.03	0.155	0.0228	0.0484	-0.173
CCCCGGA	0.0634	-0.0188	0.183	0.431	0.0769	0.0695	0.149	0.0943	-0.116	-0.109
TCACGAG	-0.0543	0.04	0.127	0.251	-0.00663	-0.912	0.0773	0.0135	0.00346	-0.00375
CGTACTT	0.254	0.0895	0.175	0.02	0.127	1.37	-0.089	0.0215	0.0141	0.333
TATGCAA	0.0495	0.146	-0.21	-0.813	0.0427	-1.1	0.0473	0.000146	0.14	0.0101
CATTTTT	-3.35	-3.77	-1.65	-3.14	-1.33	-0.946	-3.76	-1.47	-0.089	-0.728
ATCTAGA	0.0492	0.0243	-0.185	-0.287	-0.011	-0.996	0.119	0.0689	-0.0664	0.0297
TCAAACC	-0.0343	0.101	0.0158	-0.697	0.00789	-0.571	-0.484	-0.0317	0.071	0.0653
CCATTAC	0.0645	0.0799	-0.427	-1.56	0.00575	-0.981	0.013	0.0413	0.0763	-0.0159
GAAACTT	-0.0694	-0.128	-1.87	-2.1	-0.00675	0.909	-1.99	-0.2	0.0546	-0.497
